# Reference: PubChem BioAssay AID1345083 (National Center for Advancing Translational Sciences (NCATS), 2018)
# Hit rate of the full screen: of about 94,000 compounds, about 6,200 (6.6%) were called active. The inconclusive results got no clear call from the source; some entries with a clear call stand among them for comparison. The call rests on the fitted dose curve; in most records, active means well fitted inhibition curve with a large enough effect; inconclusive means small, poorly fitted or top-dose-only effect; inactive means flat fitted curve, though single readings scatter. Where the call is inconclusive, the potency comes from a doubtful curve fit.
# Experiment: Cytotoxic Profiling in HEK 293 Cell Line of Diverse Libraries Using Quantitative High-Throughput Screening; further: nearly all actives have a fitted effect of over 60% in size
# Details: HEK 293 viability, ATP luminescence (CellTiter-Glo), 48-72 h; series mostly up to 115 µM
# Method in brief: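 qHTS cytotoxicity; HEK 293, 250 cells/well; compound pinned; 48 or 72 hr, 37 degree Celsius, 5% CO2, 95% humidity; CellTiter-Glo, 10 min RT; luminescence (ATP).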
# Potency means the concentration at half of the fitted maximal effect; tags describe the fitted curve by direction and shape.
row,Structure (SMILES),Potency
1,Cc1ccsc1C(=O)NCC1Cn2cccc2C(=O)N1Cc1ccccc1 (centres undefined),"inconclusive: 89.1 µM [inhibitor, single point]"
2,Cc1ccc(C2Cn3nnc(C(=O)N4CCN(C(=O)c5ccccc5F)CC4)c3CO2)cc1 (centres undefined),"inconclusive: 15.8 µM [inhibitor, full curve, poor fit]"
3,C[C@@H]1CN(C(=O)c2ccc3c(c2)NC(C)(CNc2ccccc2)CO3)C[C@H](C)O1 (some centres undefined),"inconclusive: 63.1 µM [inhibitor, full curve]"
4,COc1ccc2[nH]c3c(c2c1)CCNC31CCN(C(=O)c2cccnc2C)CC1,"inconclusive: 56.2 µM [inhibitor, partial curve, poor fit]"
5,CCOC(=O)[C@@H]1[C@@H](OC)C(=O)N(Cc2ccccc2)C12CCN(C(=O)c1cccc(C#N)c1)CC2,"inconclusive: 79.4 µM [inhibitor, partial curve, poor fit]"
6,Cc1cc(C)n2nc(C(=O)N3CCN4C(=O)CN(C)C(=O)C4C3)cc2n1 (centres undefined),inactive
7,COCc1ccc2c(c1)c(OC(C)(C)C(=O)N1CCN(C)CC1)nn2CCC(C)C,"inconclusive: 112 µM [inhibitor, partial curve]"
8,CNC(=O)c1cc(C2CC2)nc2onc(C3CCCN3[S+](=O)([O-])c3cccs3)c12 (centres undefined),inactive
9,COc1ccc(C(=O)N2CCC3(CC2)CNC(=O)c2ccccc2O3)cc1,inactive
10,Cc1ccsc1C(=O)N1CCN(C(=O)c2nnn3c2COC(c2ccc(Cl)cc2)C3)CC1 (centres undefined),"inconclusive: 44.7 µM [inhibitor, partial curve, poor fit]"
11,COc1ccc(C(=O)N2CC(Oc3ccc(-c4nc(-c5ccccc5)no4)cc3)C2)cc1,inactive
12,CC(=O)NC1(C)CCN(Cc2ccc(-c3ccc([S+](C)(=O)[O-])cc3)cc2)C1 (centres undefined),"inconclusive: 112 µM [inhibitor, single point]"
13,O=C(c1nnc(COc2ccc(F)c(F)c2)n1-c1ccccc1)N1CCC[C@@H]1c1cccc(F)c1,"inconclusive: 50.1 µM [inhibitor, partial curve, poor fit]"
14,NC(=O)Cc1c[nH]c2ncc(-c3ccccc3F)cc12,inactive
15,Cn1cc(CN2CCn3c(nnc3[C@@H]3C[C@@H](O)CN3Cc3cccnc3)C2)c2ccccc21,"inconclusive: 100 µM [inhibitor, single point]"
16,COCCOCc1nc(C2CCN(C(=O)NCc3ccc(OC)cc3)CC2)no1,inactive
17,O=C(CCc1conc1-c1ccccc1F)NCc1ccc(Cl)cc1,"inconclusive: 89.1 µM [inhibitor, partial curve, poor fit]"
18,COc1cc(OC)c(CNC(=O)c2c(C)noc2-c2cc(OC)c(OC)c(OC)c2)c(OC)c1,"inconclusive: 50.1 µM [inhibitor, partial curve, poor fit]"
19,CC(C)NC(=O)c1ccc2nnc(C3CCOCC3)n2c1,inactive
20,O=C(C1CCCC1)N1CCc2onc(-c3ccc(C(F)(F)F)cc3)c2C1,"inconclusive: 56.2 µM [inhibitor, partial curve, poor fit]"
21,O=C(NC1CCCN(c2cc(-c3ccccc3)[nH]n2)C1)c1ccsc1 (centres undefined),"inconclusive: 79.4 µM [inhibitor, single point]"
22,Cc1csc(NC(=O)c2nc3c(o2)CCN(Cc2c(F)cccc2F)CC3)n1,"inconclusive: 126 µM [inhibitor, single point]"

row,Structure (SMILES),Potency
1,CCc1noc(-c2cccn3c(CNC(=O)c4ccccc4F)nnc23)n1,"inconclusive: 89.1 µM [inhibitor, single point]"
2,COc1cccc(-c2cc(-c3ccncc3)c3cncn3c2)c1OC,active: 89.1 µM
3,COc1ccc(NC(=O)O[C@@H]2CO[C@H]3[C@@H]2OC[C@@H]3NS(=O)(=O)Cc2ccccc2)cc1,inactive
4,COC(=O)N1CCN(C(=O)c2ccc(-c3ccc(OC)nn3)cc2)CC1,inactive
5,COc1ccc(OC2CN(Cc3ccc(NC(C)=O)cc3)C2)cc1,"inconclusive: 112 µM [inhibitor, partial curve, poor fit]"
6,Cn1ncc2c(C(=O)N3CCN(c4ncccn4)CC3)cc(-c3ccccc3)nc21,"inconclusive: 50.1 µM [inhibitor, partial curve, poor fit]"
7,CCN1c2cc(C(=O)Nc3ccc(Br)cc3)ccc2C(=O)N2CCCCC21 (centres undefined),"inconclusive: 79.4 µM [inhibitor, partial curve, poor fit]"
8,Cn1ncc2c(C(=O)NC3CC3)cc(-c3ccc(Cl)cc3)nc21,"inconclusive: 100 µM [inhibitor, partial curve, poor fit]"
9,CC(C)(C)CN1CCOC[C@H]1c1ncc(-c2ccc(Cl)s2)[nH]1,active: 79.4 µM
10,COc1ccc(C(=O)N2CCC3(CC2)C(OC)C(=O)N3c2cccc(F)c2)c(OC)c1 (centres undefined),"inconclusive: 56.2 µM [inhibitor, partial curve, poor fit]"
11,CN1C(=O)CCC2(CNC(=O)COc3ccccc3)CCC=C12 (centres undefined),inactive
12,COc1ccc(CN2Cc3cc(NC(=O)c4ccccc4F)ccc3OC(C)C2=O)c(OC)c1 (centres undefined),active: 35.5 µM
13,COc1cccc(S(=O)(=O)N2CCC3(CC2)N(c2ccccc2)C(=O)CS3=O)c1 (centres undefined),inactive
14,Fc1ccc(-c2cnc([C@@H]3COCCN3C3CCC3)[nH]2)cc1,"inconclusive: 112 µM [inhibitor, partial curve, poor fit]"
15,COc1ccc(-c2cc(N3CCCC(NC(=O)c4ccccc4)C3)n[nH]2)cc1 (centres undefined),"inconclusive: 25.1 µM [inhibitor, partial curve]"
16,Cn1cc(CNC(=O)c2ccc(OC3CCN(S(C)(=O)=O)CC3)c(Cl)c2)cn1,"inconclusive: 89.1 µM [inhibitor, single point]"
17,O=C(c1ccccc1)N1CCC(C(=O)N2CCCC(c3nc4ccncc4[nH]3)C2)CC1 (centres undefined),inactive
18,Cc1ccc(-c2nccn3cc(C(=O)NCC(C)C)nc23)cc1,active: 39.8 µM
19,c1ccc(COC2CCN(c3nccc(-c4cccnc4)n3)CC2)nc1,"inconclusive: 50.1 µM [inhibitor, partial curve, poor fit]"
20,OCC1(Cc2ccccc2Cl)CCN(Cc2cc3ccccc3o2)CC1,active: 17.8 µM
21,N#Cc1ccc(CN2CCn3nnc(-c4nc(-c5ccsc5)no4)c3C2=O)cc1,"inconclusive: 70.8 µM [inhibitor, single point]"
22,COc1ccc(C2(C(=O)N3CCC(Cc4nc(-c5ccccc5)n[nH]4)C3)CC2)cc1 (centres undefined),"inconclusive: 56.2 µM [inhibitor, partial curve, poor fit]"

row,Structure (SMILES),Potency
1,COc1ccc(Cn2c(=O)c(C(=O)NCc3cccc(OC)c3)nc3cccnc32)cc1,"inconclusive: 50.1 µM [inhibitor, partial curve, poor fit]"
2,CCc1nc2c(c(-c3ccc(Cl)cc3)n1)CCN(Cc1ccc(NC(C)=O)cc1)CC2,"inconclusive: 89.1 µM [inhibitor, single point]"
3,CC(=O)Nc1cccc(-c2cn(C)c(=O)n3cc(COc4ccnn4C)nc23)c1,"inconclusive: 100 µM [inhibitor, single point]"
4,O=C(c1ccsc1)N1CCC2(CCC2N2CCOCC2)CC1 (centres undefined),inactive
5,O=C(Nc1ccccc1)Nc1ccc([C@H]2OCC(=O)N(Cc3ccncc3)[C@@H]2CO)cc1,inactive
6,CC(C)N1C(=O)C(CC(=O)NCCCN2CCc3ccccc3C2)=C2CCCCC21 (centres undefined),inactive
7,Cc1cnc(C2CC2)n1CCNC(=O)Cn1c(=O)oc2cc(Cl)ccc21,"inconclusive: 50.1 µM [inhibitor, partial curve, poor fit]"
8,Cn1cc(-c2cnc(Nc3cncnc3)c3c2CCO3)cn1,inactive
9,O=C(c1ccc(Cl)nc1)N1CCC(c2nn(-c3ccccn3)c(=O)[nH]2)CC1,inactive
10,Clc1cnccc1CN1CC(CNc2ccccc2)C2(C1)CN(c1ccccc1)C2 (centres undefined),"inconclusive: 28.2 µM [inhibitor, full curve, poor fit]"
11,O=C(Nc1ccc2c(c1)OCO2)C1CCc2sc(C(=O)N3CCCC3)cc2C1 (centres undefined),active: 31.6 µM
12,Cc1ccc(C(=O)N2CCC3(CC2)CCN(CCc2ccccc2)c2ccccc2O3)cc1,"inconclusive: 39.8 µM [inhibitor, partial curve, poor fit]"
13,COc1ccc(NC(=O)Cn2cccc2-c2nc(-c3ccc(F)cc3)no2)cc1,"inconclusive: 100 µM [inhibitor, single point]"
14,COCCCNC(=O)c1ccc2nc(-c3cccnc3)oc2c1,"inconclusive: 126 µM [inhibitor, single point]"
15,CCOC(=O)[C@H]1C[C@]2(CCCCNC2=O)N(C(=O)Cc2ccc(OC)cc2)[C@H]1c1ccco1,inactive
16,O=C(c1ccco1)N1CCC[C@H](n2c(=O)n(CC3CC3)c3cccnc32)C1,"inconclusive: 89.1 µM [inhibitor, single point]"
17,COc1ccccc1-c1cn2c(n1)CO[C@@H](CNCc1ccc(F)c(F)c1)C2,"inconclusive: 100 µM [inhibitor, partial curve, poor fit]"
18,COc1ccccc1-c1cccc(CN2CCC(NC(=O)C(C)(C)C)CC2)c1,"inconclusive: 56.2 µM [inhibitor, partial curve, poor fit]"
19,Cc1nc2cccnc2n1CC1CCCN(S(=O)(=O)c2ccc(C(F)(F)F)cc2)C1 (centres undefined),"inconclusive: 50.1 µM [inhibitor, partial curve, poor fit]"
20,Cc1sc2cc(C(=O)NCC3CC3)[nH]c2c1CN1CCCCC1,"inconclusive: 89.1 µM [inhibitor, single point]"
